44 sequences from the supplement of paper PMC11417369 can be followed below.

The list shows a part of the results.

The assay concerns PfAP2-HC AP2 domain (GST-tagged). Description: gcPBM binding intensity (ln(normalized median fluorescence intensity)); higher = stronger DNA binding. The procedure, abridged: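 Using an Agilent 4 × 180k array, primer-extended double-stranded 36-bp intergenic genomic probes and negative controls were exposed for 1 h to GST-fused P. falciparum DNA-binding domains expressed in E. coli. Binding was carried out in 1× PBS with 1% milk, 0.2 mg/ml BSA, 0.5% salmon testes DNA and 0.03% Triton X-100, and protein was detected with Alexa488 anti-GST antibody and a 488 nm scan. Binding intensity is the highest Masliner-normalised natural-log median intensity across replicate spots of either probe orientation.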
In the case of “TATGTTTACATATACGTGCACATGAATGTATACATT [GTGCAC_site9894]”, the “gcPBM binding intensity (ln)” value came to 9.73. Consider “TTTAGCACAAACAAAAAAAAAATAGAAAAAAATATA [CACACA_negctrl_site1772]”, for which the “gcPBM binding intensity (ln)” value was 9.46. With “TATATATATATATCCACACACATACATATATTAATA [CACACA_site69]”, the “gcPBM binding intensity (ln)” value turned out to be 10.3. On to “TTGGTAATTTTAAAATGTACTTATTATATATATATA [XGTACX_site5642]”, for which the “gcPBM binding intensity (ln)” value was found to be 9.52. Next, “TATACACTTGTAATAACACACATTATTTTTTTTTTT [CACACA_site1324]”: 9.86; “ATAAAAAATTTAAGTATTTTTTACAAACCTATAAAT [GTGCAC_negctrl_site51]”: 9.38; “AATTAACCGAAACACACACACATATATATATATATA [CACACA_site3963]”: 10.5. Take “TTTTGTTGTTGTTGTTGTACATAAATAATAAAATAT [XGTACX_site8681]”: the “gcPBM binding intensity (ln)” value was found to be 9.63.

With “ATATATTTTTTTTAGCGTACATGCAAAAAAAAAAAA [XGTACX_site4590]”, the “gcPBM binding intensity (ln)” value stood at 9.36. Next, “TCATAAATTAAACACACACACACATCTGGATACCCC [CACACA_site9096]”: 10.9; “TATACACACAGACATGCATGCACATATATATATACA [TGCATGCA_site30]”: 10. On to “AAATTAAAAGAAAATACACACCTGTGGGTGCTTATA [CACACA_site5143]”, for which the “gcPBM binding intensity (ln)” value came out at 9.61.

Consider “ATTTTTTTTTGTTTAATGTTATGTGGTCATTAAATT [CACACA_negctrl_site1177]”, for which the “gcPBM binding intensity (ln)” value turned out to be 9.74. For the sequence “TATTTATTCACTTATTGTACTTATATATATAATAAA [XGTACX_site6147]”, the “gcPBM binding intensity (ln)” value is 9.69. As to “TTTTTTTTATTTTAATGTACATTTTTTATTTGTTAT [XGTACX_site7189]”, the “gcPBM binding intensity (ln)” value was found to be 9.89.

“TGATACTTTTTTTGTAGTACTCCTAAAATTATAAAA [XGTACX_site4340]”: the “gcPBM binding intensity (ln)” value stood at 9.28. As to TAATAAAATATGTACGTGCACATAATTATACTAAAA, the “gcPBM binding intensity (ln)” value turned out to be 9.79.

In the case of “ATATATATATTATTTCGTACATAATTATTTGCCTTA [XGTACX_site350]”, the “gcPBM binding intensity (ln)” value was 9.67. As to “AAAAAAAAAAAAAATTGTACAAAAAAAATAAATAAA [XGTACX_site6816]”, the “gcPBM binding intensity (ln)” value is 9.76. “AAAAAAAAAAAAGAAACACACATATTTATATTTATA [CACACA_site6213]”: the “gcPBM binding intensity (ln)” value came to 9.74. Regarding “TTATTTTAATAACCTACACACATTTTGTATATTTTA [CACACA_site4000]”, the “gcPBM binding intensity (ln)” value stood at 9.89.

As for “AAATGATGGAAAAAATAAATTTTTGTACAAAAATTA [CACACA_negctrl_site814]”, the “gcPBM binding intensity (ln)” value came to 9.49. In the case of “TTATAAATATTCTTGGGTACTTAAGATGATATGTAA [XGTACX_site5496]”, the “gcPBM binding intensity (ln)” value was 9.41. “AAAAAAAAAAAGAAAGCACACAATACATATGTATAA [CACACA_site1137]”: the “gcPBM binding intensity (ln)” value stood at 9.86. Regarding “ATATATATCAGACACACACACATGTTTTAAAACTAT [CACACA_site77]”, the “gcPBM binding intensity (ln)” value amounted to 10.3.

As to “TAAATTTTTAAATACACACATACACCCATACAGACA [CACACA_site548]”, the “gcPBM binding intensity (ln)” value came out at 10.4.

With “TTTTTTTTGTGGTGTCGTACATATGTTTGTTTTAAG [XGTACX_site1759]”, the “gcPBM binding intensity (ln)” value stood at 9.98. The result for “ATTATGCTACAAGGAGAACACACAATTGCCACTTTT [CACACA_site8673]” reads 9.9; that for “ACATATATATATATATATATATATATATAATATTTA [CACACA_negctrl_site633]”, 9.52. Take CCACGAGAATATATAGTGCATAATAATTTTTTTTTG: the “gcPBM binding intensity (ln)” value amounted to 9.48. Turning to “GGTGATAATAAGCATACACACACACCCAAAAAAAAA [CACACA_site8137]”, the “gcPBM binding intensity (ln)” value was 10.2. On to “ACACATACACATTAGGTGCATATATTTCAATATTAC [GTGCAC_site9423]”, for which the “gcPBM binding intensity (ln)” value was found to be 9.84. In the case of “TTTAAAAAGATATATACACACATATAAATAAATATA [CACACA_site6436]”, the “gcPBM binding intensity (ln)” value is 9.81. Turning to “CCACGTATAATATGTACACACACATATATACAAAAA [CACACA_site8208]”, the “gcPBM binding intensity (ln)” value came out at 10.2. The result for “AGCCTCGGGGTCATATATATATATATATATATATAT [CACACA_negctrl_site512]” reads 9.72. As to “ATTATATTTTTAAGTACACACATATATATATATATA [CACACA_site5925]”, the “gcPBM binding intensity (ln)” value worked out at 9.76. As to “AATTATTTACCCTATACACACAAAACAGACTAAAAA [CACACA_site6688]”, the “gcPBM binding intensity (ln)” value turned out to be 10.2. Next, “ATAAAAATCATGTTGGTGCGAAATTTTATTATCAGA [GTGCAC_site9735]”: 9.62; “ATATTAATTCGTTTTGTACACACATAATGAATAATT [CACACA_site8701]”: 10; “TTATGTATAAACACACGTACACACACTAAGTATATC [XGTACX_site3254]”: 10.1.

Turning to “AAGGTATGATTAATCACACACATAAATATATATACA [CACACA_site2658]”, the “gcPBM binding intensity (ln)” value is 10.1.

With “TATATATATATATATATAATACGAATTTGTAGTACA [TGCATGCA_negctrl_site224]”, the “gcPBM binding intensity (ln)” value came out at 9.62.

In the case of “ATGTTTTTAAAAAATTGTACATAATATTTTTTATAA [XGTACX_site7692]”, the “gcPBM binding intensity (ln)” value was determined as 9.46. For “ATAAAAGGAAGAAAATGTACATATAATTATATGCAT [XGTACX_site8421]”, the “gcPBM binding intensity (ln)” value amounted to 9.83.
